From PubChem BioAssay (NCI)
Values joined by “and” are separate entries in the source; they are usually repeats but may differ in a detail not shown here. Equal values may be shown once.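 1) Cells in 96-well plates. 2) Compound, 48 h, 5 concentrations. 3) Linear interpolation between surrounding doses. 4) Unreached endpoint = highest concentration. Abbreviation: GI50, concentration required for 50% inhibition of growth. TGI marks complete inhibition of growth.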

tested on: NCI-H322M lung; experiment: DTP human tumour cell line panel, 48 h

Row | Compound | TGI | GI50 [µM]
1 | COC(=O)C1CCC(=O)N1/C(C)=N/NC(=O)Nc1ccc(Cl)c(Cl)c1 (centres undefined) | > 100 µM | –
2 | Cn1c(=O)c2c(nc(N/N=C3/SCC(=O)N3Cc3ccccc3)n2C)n(C)c1=O | > 100 µM | –
3 | CCCCC[C@@H](C/C=C/CCC(=O)NC/C(=C/Cl)[C@H]1C(=O)C(C)(C)C(=O)[C@@H](C)[C@@]1(C)O)OC | 73.5 µM | 27.7
4 | Cc1ccc2nc(C(=O)O)c(=O)[nH]c2c1 | > 100 µM | –
5 | C[n+]1c2ccccc2c(C(=O)Nc2ccc(S(=O)(=O)Nc3ncccn3)cc2)c2ccccc21 | > 100 µM | –
6 | C/C(Nc1ccc(Cl)cc1)=C1/CCOC1=O | > 100 µM | –
7 | CSc1nc(C)c2c(n1)N(c1ccc(Cl)cc1)CC2 | > 100 µM | –
8 | Cc1cc(C)n2c(nc3ccccc32)c1C#N | > 100 µM | –
9 | CC(=O)C(C(C)=O)[C@H]1OC(C)(C)O[C@H]1[C@H]1COC(C)(C)O1 | > 100 µM | –
10 | CC(C)=CCC/C(C)=C/C=C/C(C)=C/C1C[C@@]2(C(O)O1)[C@H](CCCO)/C(=C(/C)C=O)CC[C@]2(C)O (some centres undefined) | 25.4 µM | –
11 | c1cncc(C2ONC3=NCCN32)c1 (centres undefined) | > 100 µM | 35.5
12 | N#CC(NNC(=O)c1ccccc1O)c1c(O)ccc2ccccc12 (centres undefined) | > 83.3 µM | –
13 | C=CCN1C(=O)CC(=O)N(NC2=NNC3(C(=O)N2)c2ccccc2-c2ccccc23)C1=S | > 100 µM | –
14 | COc1c(O)c2c3c(c1OC)-c1ccccc1CC3N(S(=O)(=O)c1ccc(C)cc1)CC2 (centres undefined) | > 50 µM | 2.73
15 | COc1ccc(/C=C/C(C)=N/OCC(=O)Nc2ccc(Cl)cc2)cc1 | > 88.1 µM | 3.67
16 | O=C(/C(=C/c1ccc(O)cc1)c1ccccc1)c1ccccc1 | 34.7 µM | –
17 | CC1CC(C)C(C(O)CC2CC(=O)N(c3ccccc3)C(=O)C2)C(O)C1 (centres undefined) | > 100 µM | –
18 | N#Cc1c(N)nc(Sc2ccccc2N)c(C#N)c1-c1ccccc1 | > 100 µM | –
19 | C#CCOC(=O)C(=[N+]=[N-])C(=O)CC(C)C | > 10 µM | –
20 | O=c1cccccc1[O-].O=c1cccccc1[O-].O=c1cccccc1[O-].[Sm+3] | > 100 µM | –

Row | Compound | TGI | GI50 [µM]
21 | CCC(=C/[C@H](C)C/C=C/C(C)=C/[C@@H](C)C(=O)[C@@H](C)[C@H](O)[C@@H](C)CC)/C=C/[C@H]1CC=CC(=O)O1 | 12 µM and 13.1 µM | –
22 | CNCc1cccc2c1OCCOCCOCCC(C)S(=O)(=O)c1ccc(cc1)-c1cnc(N)c(n1)C(=O)N2 (centres undefined) | 6.56 µM | 1.59
23 | C/C(CC(=O)Nc1cccc([N+](=O)[O-])c1)=N\NC(=O)C[n+]1ccccc1 | > 100 µM | –
24 | S=c1[nH]nc(CCCCCCCCc2n[nH]c(=S)o2)o1 | > 100 µM | –
25 | COc1ccc(Cc2nc3cc(OC)c(OC)cc3c(=O)[nH]2)cc1 | 32.6 µM | 3.97
26 | COc1ccc(C(=O)O/N=C2/CCCCC2CN(C)C)cc1 (centres undefined) | > 100 µM | –
27 | O=C(OC[C@@H]1CO1)c1cccc2c(=O)c3ccccc3[nH]c12 | 6.4 µM | 1.66
28 | C(=C\c1c2oc(-c3ccccc3)cc(-c3ccccc3)c-2c2ccccc12)/C=C1\c2ccccc2-c2c(-c3ccccc3)cc(-c3ccccc3)[o+]c21 | > 100 µM | –
29 | CCOc1ccc(Nc2nc(-c3c(C)nc4ncccn34)cs2)cc1 | 26.9 µM | 0.0584
30 | COc1ccc(-c2cc(-c3ccccc3)nc(NCCNc3ccnc4cc(Cl)ccc34)n2)cc1 | 3.12 µM | 1.57
31 | Nc1nc(=S)[nH]c(C(=O)Nc2nccs2)c1-c1ccccc1 | > 100 µM | –
32 | CCCCCCCCCCCCOC1C(C(CC(=O)N2CCN(Cc3ccc4c(c3)OCO4)CC2)NS(=O)(=O)c2cc(Cl)cc(Cl)c2)OC2OC(C)(C)OC21 (centres undefined) | > 100 µM | > 100
33 | COC(=O)c1ccc2[nH]c(O)c(C(=Nc3ccc(N(C)C(=O)CN4CCN(C)CC4)cc3)c3ccccc3)c2c1 | 4.7 µM | 1.17
34 | OCCCCC#Cc1ccccc1C#Cc1ccc(C(F)(F)F)cc1 | 26.2 µM | 13.1
35 | CCSc1ncc(Br)c(Sc2nc(N)nc3nc[nH]c23)n1 | > 100 µM | 5.99
36 | Nc1ccc(C(=O)/C=C/c2ccccc2O)cc1 | > 100 µM | –
37 | Cc1ccc(-n2cc(-c3ccc(Cl)cc3)c3c(=N)n(N)cnc32)cc1 | 27.4 µM | –
38 | N/C(=N\C(N)=N\c1nc2ccccc2s1)c1cnccn1 | > 100 µM | 3.01
39 | COc1ccc(/C=C\c2cc(OC)c(OC)c(OC)c2)c(NS(=O)(=O)c2ccc(C(C)(C)C)cc2)c1O | 25.5 µM | 6.95
